The name of at least one read-out is uncertain.
Tested on: scopolamininduzierten Amnesie
Experiment: Passive avoidance test, scopolamine-induced amnesia (light-dark box, foot shock, latency after 24 h)
Type: in vivo, Mäuse
Conditions: Dosis 3 mg/kg p.o.; male mice, scopolamine hydrobromide 3 mg/kg i.p.; latency measured after 24 h (max. 180 sec)
Method: Die Testapparatur ist eine Hell-Dunkel-Box mit elektrifizierbarem Gitterboden im dunklen Teil.
55 Minuten nach Verabreichung von Kontroll-und Präparatinjektion werden unerfahrene männliche Mäuse mit Scopolaminhydrobromid (3 mg/kg i.p.) behendelt. 5 Minuten später werden die Mäuse in den hellen Teil der Box gesetzt. Nach dem Überwechseln in den drunklen Teil der Box erhalten sie einen ihnen unangenehmen elektrischen Fußschock. Nach 24 Stunden wird jede Maus einmal in den hellen Teil der Testapparatur gesetzt und die Verweildauer (max. 180 sec.) gemessen. […] […] Die Ergebnisse sind in Tabelle 2 angegeben.

Compared with CC(=O)NCCn1c(C)cc(C=O)c1C [Beispiel 1, 1-(2-Acetylaminoethyl)-2,5-dimethylpyrrol-3-aldehyd], COC(=O)Cn1c(C)cc(C=O)c1C [Beispiel 10, 2,5-Dimethyl-1-(methoxycarbonylmethyl)-pyrrol-3-aldehyd] is lower in “Prozentuale Abschwächung der scopolamininduzierten Amnesie” value: 219% for the first, 108% for the second.

In the case of CC(=O)NCCn1ccc(C=O)c1 [Beispiel 11, 1-(2-Acetylaminoethyl)-pyrrol-3-aldehyd], the “Prozentuale Abschwächung der scopolamininduzierten Amnesie” value is reported as 126%.

Same assay, conditions: Dosis 10 mg/kg p.o.; male mice, scopolamine hydrobromide 3 mg/kg i.p.; latency measured after 24 h (max. 180 sec)

First: CC(=O)NCCn1cccc1C=O [Beispiel 6, 1-(2-Acetylaminoethyl)-pyrrol-2-aldehyd]
Second: Cc1cc(C=O)c(C)n1CCn1c(C)cc(C=O)c1C [Beispiel 9, 1,2-Di-(2,5-dimethyl-3-formyl-pyrrol-1-yl)-ethan]
The “Prozentuale Abschwächung der scopolamininduzierten Amnesie” value of the first is lower: 63% for the first, 297% for the second.

Same assay, conditions: Dosis 30 mg/kg p.o.; male mice, scopolamine hydrobromide 3 mg/kg i.p.; latency measured after 24 h (max. 180 sec)

First: CC(=O)NCCCn1c(C)cc(C=O)c1C [Beispiel 4, 1-(3-Acetylaminopropyl)-2,5-dimethyl-pyrrol-3-aldehyd]
Second: CCCC(=O)NCCn1c(C)cc(C=O)c1C [Beispiel 5, 1-(2-Butyrylaminoethyl)-2,5-dimethyl-pyrrol-3-aldehyd]
The “Prozentuale Abschwächung der scopolamininduzierten Amnesie” value of the first is lower: 92% for the first, 96% for the second.

Going from Cc1cc(C=O)c(C)n1CCN(C)C [Beispiel 12, 1-(2-Dimethylaminoethyl)-2,5-dimethylpyrrol-3-aldehydtartrat] to Cc1cc(C=O)c(C)n1CCNC(=O)c1ccccc1 [Beispiel 14, 1-(2-Benzoylaminoethyl)-2,5-dimethyl-pyrrol-3-aldehyd], the “Prozentuale Abschwächung der scopolamininduzierten Amnesie” value falls from 128% to 124%.

In the case of Cc1cc(C=O)c(C)n1CCc1c[nH]c2ccccc12 [Beispiel 15], the “Prozentuale Abschwächung der scopolamininduzierten Amnesie” value is reported as 98%.

Source: EP0287988A2, “Pyrrole aldehydes, their preparation and use” (CASSELLA Aktiengesellschaft, priority 1987, dated 1988)
